This is an account of results in the antibiotic and cytotoxicity screens of Wong et al. (2023).

Structures are written as SMILES. The list shows a part of the results.

This test has as its system HepG2. The test can be described thus: cytotoxicity call (relative viability < 0.9). As to conditions: 10 µM.
On to `O=C(O)CCCC[C@@H]1SC[C@@H]2NC(=O)N[C@@H]21`, for which the cytotoxicity call is “inactive”.
The same measure for `C[C@@H]1O[C@@H](O[C@@H]2[C@@H](O)[C@H](C)O[C@@H](OC[C@H]3O[C@@H](Oc4c(-c5ccc(O)c(O)c5)oc5cc(O)cc(O)c5c4=O)[C@@H](O)[C@@H](O)[C@@H]3O)[C@@H]2O)[C@H](O)[C@H](O)[C@H]1O`: “inactive”; for `COc1ccc(NC(=O)Nc2ccc3c(c2)C(=O)N([C@@H](C)CO)C[C@@H](C)[C@H](CN(C)S(=O)(=O)c2ccc(C)cc2)OCCCC[C@H](C)O3)cc1`: “inactive”.
As to `C[C@H](CO)N1C[C@H](C)[C@@H](CN(C)C(=O)Nc2ccccc2)Oc2ccc(NC(=O)C3CC3)cc2CC1=O`, the cytotoxicity call was “inactive”.
For `O=C(NO)c1ccc(-c2cn(CC(=O)N3CCOCC3)nn2)s1`, the cytotoxicity call is “inactive”.
The same measure for `C[C@H](CO)N1C[C@H](C)[C@H](CN(C)Cc2ccc(C(F)(F)F)cc2)Oc2ccc(NC(=O)Nc3ccc(C(F)(F)F)cc3)cc2C1=O`: “active”; for `NC1CCN(c2cccc(Cl)n2)CC1`: “inactive”.
Next, `COCCOC(=O)N1C(=O)[C@@]2(c3cc(C#CCNC(N)=O)ccc31)[C@H](C(=O)N1CCc3cc(OC)c(OC)cc3C1)[C@H]1C(=O)O[C@H](c3ccccc3)[C@H](c3ccccc3)N1[C@@H]2c1ccccc1OCCO`: “inactive”.
With `C[C@H](CO)N1C[C@H](C)[C@H](CN(C)S(=O)(=O)c2cccs2)Oc2c(NC(=O)Nc3cccc4ccccc34)cccc2C1=O`, the cytotoxicity call is “inactive”.
With `C[C@H](CO)N1C[C@H](C)[C@@H](CN(C)C(=O)CCC(F)(F)F)OCCCC[C@H](C)Oc2ccc(NS(=O)(=O)c3ccc(F)cc3)cc2C1=O`, the cytotoxicity call was “inactive”.
Take `O=C(CCCCCNC(=O)OCc1ccc(CO[C@H]2C[C@@H](c3ccc(C(F)(F)F)cc3)C=C(C(=O)NC3CC3)O2)cc1)NO`: the cytotoxicity call is “inactive”.
Consider `Cc1noc(C)c1NC(=O)N(C)C[C@H]1Oc2c(NC(=O)Nc3cccc4ccccc34)cccc2C(=O)N([C@H](C)CO)C[C@H]1C`, for which the cytotoxicity call was “inactive”.
On to `C[C@@H]1CN([C@H](C)CO)C(=O)c2cccc(NC(=O)Nc3cccc4ccccc34)c2O[C@@H]1CN(C)Cc1ccc(C(=O)Nc2ccccc2N)cc1`, for which the cytotoxicity call is “inactive”.
As to `Cc1ccc(C(=O)c2ccc(Oc3ccccc3)cc2)cc1`, the cytotoxicity call was “inactive”.
As to `CO[C@H]1CN(C)C(=O)c2cc(NC(=O)CC(F)(F)F)ccc2OC[C@H](C)N(C(=O)C2CCOCC2)C[C@H]1C`, the cytotoxicity call was “inactive”.
In the case of `C[C@@H]1CN([C@H](C)CO)C(=O)c2cc(NC(=O)Cn3cnnn3)ccc2O[C@H]1CN(C)C(=O)Nc1cccc2ccccc12`, the cytotoxicity call is “active”.
The same measure for `C[C@@H]1CN([C@H](C)CO)S(=O)(=O)c2ccc(C#Cc3ccncc3)cc2O[C@@H]1CN(C)S(=O)(=O)c1ccccc1`: “active”; for `CCNC(=O)C[C@@H]1CC[C@@H](NC(=O)C2CC2)[C@H](CO)O1`: “inactive”; for `NC(=O)c1cc[n+](CC2=C(C(=O)[O-])N3C(=O)C(NC(=O)Cc4cccs4)C3SC2)cc1` (stereo not drawn): “inactive”.
Next, `COc1ccc(S(=O)(=O)N2C[C@@H](O)COC[C@@H]3O[C@@H](CC(=O)N[C@@H]4CCN(Cc5ccccc5)C4)CC[C@H]32)cc1`: “inactive”; `OC[C@H]1O[C@H](O[C@H]2O[C@H](CO)[C@@H](O)[C@H](O)[C@H]2O)[C@H](O)[C@@H](O)[C@@H]1O`: “inactive”; `C[C@@H]1CN([C@@H](C)CO)C(=O)c2cc(NC(=O)Nc3ccc(F)cc3)ccc2O[C@@H](C)CCCCO[C@H]1CN(C)Cc1ccc(C(=O)O)cc1`: “inactive”.
For `C[C@@H]1CCCCO[C@@H](CN(C)C(=O)Nc2ccc(F)cc2)[C@H](C)CN([C@@H](C)CO)C(=O)c2cc(NC(=O)NC3CCCCC3)ccc2O1`, the cytotoxicity call is “inactive”.
Consider `CN(C)c1ccc(O)c2c1C[C@H]1C[C@H]3[C@H](N(C)C)C(=O)[C@@H](C(N)=O)C(=O)[C@@]3(O)C(=O)[C@H]1C2=O`, for which the cytotoxicity call was “inactive”.
Regarding `C[C@H]1CN([C@@H](C)CO)C(=O)Cc2cc(NC(=O)Cc3ccccc3)ccc2O[C@@H]1CN(C)C(=O)Nc1ccc(C(F)(F)F)cc1`, the cytotoxicity call is “inactive”.
On to `Cc1ccc(S(=O)(=O)N(C)C[C@H]2Oc3cc(C#Cc4ccccc4)ccc3S(=O)(=O)N([C@H](C)CO)C[C@@H]2C)cc1`, for which the cytotoxicity call was “inactive”.
Take `COc1ccc(NC(=O)N(C)C[C@@H]2OCCCC[C@H](C)Oc3ccc(NC(=O)Nc4ccc5c(c4)OCO5)cc3C(=O)N([C@@H](C)CO)C[C@H]2C)cc1`: the cytotoxicity call is “inactive”.
For the molecule `C[C@H](CO)N1C[C@H](C)[C@@H](CN(C)Cc2ccc(C(F)(F)F)cc2)OCCCC[C@H](C)Oc2ccc(NS(=O)(=O)c3ccc(F)cc3)cc2C1=O`, the cytotoxicity call is “inactive”.
